# Reference: PMC4814574
# Sequences of proteins named here, by UniProt entry; tags and fusion partners are left off.
# UniProt Q92830: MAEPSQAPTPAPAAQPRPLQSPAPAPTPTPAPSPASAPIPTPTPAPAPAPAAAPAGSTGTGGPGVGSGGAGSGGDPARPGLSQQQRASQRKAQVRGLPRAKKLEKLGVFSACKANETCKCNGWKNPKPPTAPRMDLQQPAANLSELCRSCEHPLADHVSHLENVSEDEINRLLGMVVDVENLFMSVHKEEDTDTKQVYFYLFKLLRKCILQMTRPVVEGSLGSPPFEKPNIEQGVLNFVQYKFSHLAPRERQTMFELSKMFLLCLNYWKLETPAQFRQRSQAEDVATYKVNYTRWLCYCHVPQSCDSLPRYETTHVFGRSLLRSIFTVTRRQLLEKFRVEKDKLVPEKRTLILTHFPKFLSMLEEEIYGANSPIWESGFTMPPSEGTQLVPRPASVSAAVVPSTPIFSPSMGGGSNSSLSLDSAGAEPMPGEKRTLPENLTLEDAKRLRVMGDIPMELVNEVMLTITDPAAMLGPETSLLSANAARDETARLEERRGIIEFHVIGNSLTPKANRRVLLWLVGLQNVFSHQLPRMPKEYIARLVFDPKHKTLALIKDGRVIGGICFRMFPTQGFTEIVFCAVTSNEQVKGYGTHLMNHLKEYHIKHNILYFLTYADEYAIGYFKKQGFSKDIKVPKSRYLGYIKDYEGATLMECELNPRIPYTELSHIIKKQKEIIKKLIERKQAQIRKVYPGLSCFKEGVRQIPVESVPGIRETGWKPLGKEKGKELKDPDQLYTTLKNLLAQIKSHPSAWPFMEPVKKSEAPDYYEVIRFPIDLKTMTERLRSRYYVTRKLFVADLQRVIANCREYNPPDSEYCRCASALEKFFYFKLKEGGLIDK
# UniProt Q92831: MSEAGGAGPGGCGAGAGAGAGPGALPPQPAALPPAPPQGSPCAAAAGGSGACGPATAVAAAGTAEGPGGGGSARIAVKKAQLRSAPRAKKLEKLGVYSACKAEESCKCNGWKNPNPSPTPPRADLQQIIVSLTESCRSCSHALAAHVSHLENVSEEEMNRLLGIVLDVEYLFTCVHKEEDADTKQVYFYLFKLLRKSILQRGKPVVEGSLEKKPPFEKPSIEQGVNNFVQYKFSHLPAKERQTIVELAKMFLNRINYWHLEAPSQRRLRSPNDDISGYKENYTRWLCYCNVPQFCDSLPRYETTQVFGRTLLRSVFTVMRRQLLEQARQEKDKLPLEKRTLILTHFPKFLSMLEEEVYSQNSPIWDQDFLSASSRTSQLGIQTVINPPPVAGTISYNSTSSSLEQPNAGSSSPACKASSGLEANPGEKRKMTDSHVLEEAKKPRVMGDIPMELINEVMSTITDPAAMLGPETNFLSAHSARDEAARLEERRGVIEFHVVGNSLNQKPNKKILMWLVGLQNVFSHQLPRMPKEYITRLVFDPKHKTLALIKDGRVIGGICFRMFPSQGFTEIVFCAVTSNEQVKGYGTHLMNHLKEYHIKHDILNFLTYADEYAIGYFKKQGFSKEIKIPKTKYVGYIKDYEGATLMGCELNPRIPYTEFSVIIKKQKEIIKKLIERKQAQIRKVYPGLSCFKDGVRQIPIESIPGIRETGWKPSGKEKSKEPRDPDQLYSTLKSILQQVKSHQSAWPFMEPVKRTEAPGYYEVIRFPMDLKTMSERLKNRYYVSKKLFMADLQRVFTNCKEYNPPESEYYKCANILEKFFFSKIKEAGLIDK
# Results are given in words; binding and its absence hold for the method and conditions named. Binding seen in cells or lysates may run through a third protein. Some results given as binding are weak or reduced against the parent protein; the word gives no strength. For some assays here: Sequences can lack the tags named with a protein.
# B1: CCAAT/enhancer-binding protein alpha (C/EBPα) WT, 42-kDa human, V5-His-tagged, P49715 1-358 (protein)
# chain: MESADFYEAEPRPPMSSHLQSPPHAPSSAAFGFPRGAGPAQPPAPPAAPEPLGGICEHETSIDISAYIDPAAFNDEFLADLFQHSRQQEKAKAAVGPTGGGGGGDFDYPGAPAGPGGAVMPGGAHGPPPGYGCAAAGYLDGRLEPLYERVGAPALRPLVIKQEPREEDEAKQLALAGLFPYQPPPPPPPSHPHPHPPPAHLAAPHLQFQIAHCGQTTMHLQPGHPTPPPTPVPSPHPAPALGAAGLPGPGSALKGLGAAHPDLRASGGSGAGKAKKSVDKNSNEYRVRRERNNIAVRKSRDKAKQRNVETQQKVLELTSDNDRLRKRVEQLSRELDTLRGIFRQLPESSLVKAMGNCA
# Experiments:
# [1] = target: general control non-derepressible 5 (GCN5) (UniProt Q92830); assay: co-IP; co-immunoprecipitation (Supplementary Fig. 1d); cells, bait and antibodies not given
# [2] = target: PCAF (p300/CBP associated factor, a GCN5 homologue) (UniProt Q92831); assay: as above
# [3] = target: general control non-derepressible 5 (GCN5) (UniProt Q92830); assay: co-IP; 293T cells co-transfected; 1 mg whole cell lysate in 50 mM Tris-HCl, 150 mM NaCl, 1 mM EDTA, 1% Triton X-100; anti-FLAG M2 agarose beads overnight at 4 °C; washed thrice with TBS; immunoblot with FLAG and V5 antibodies
# [4] = target: FLAG-tagged WT C/EBPα (human) (UniProt P49715); assay: co-IP; dimerization assay: 293T cells co-transfected with V5-tagged WT or mutant C/EBPα and FLAG-tagged WT C/EBPα; lysates 24 h after transfection; anti-FLAG M2 affinity gel, 2 h at 4 °C; washed thrice with TBS
# [5] = target: T1, CCAAT/enhancer-binding protein alpha (C/EBPα) WT, 42-kDa human, V5-His-tagged (human), P49715; assay: as above; details: remark: other sources report otherwise
# T1 chain: B1 chain
binding [3],other results,Molecule
binds,binding [1]: binds; binding [2]: binds,"CCAAT/enhancer-binding protein alpha (C/EBPα) WT, 42-kDa human, V5-His-tagged (from UniProt P49715 1-358)"
binds,,C/EBPα 1-207 (from UniProt P49715 1-207) (domain or fragment)
no binding,,C/EBPα 204-358 (from UniProt P49715 204-358) (domain or fragment)
,binding [4]: binds,"C/EBPα K298, 302Q (K2Q), V5-His-tagged (from UniProt P49715 1-358)"
binds,,C/EBPα p30/120-358 (from UniProt P49715-1 120-358) (domain or fragment)
,binding [5]: binds,B1
